According to PubChem BioAssay AID1347073 (National Center for Advancing Translational Sciences (NCATS), 2019):
Among all 45,000 compounds or so, about 200 (0.44%) were called active. About 7% were inconclusive and are not listed. Calls come from the whole dose curve; as a rule, active = well fitted activation curve with a large enough effect; inconclusive = small, poorly fitted or top-dose-only effect; inactive = no such curve, though single readings can be large or run the other way. The list shows a part of the results.

Experiment: qHTS of TDP-43 Inhibitors: NCGC Sytravon Library Screen; note: 0% is about no effect; nearly all actives have a fitted effect of over 55% in size
Details: yeast TDP-43 toxicity rescue, BacTiter-Glo growth, 24 h; series mostly up to 46.1 µM; growth rescue (activation): at the top concentration
Method in brief: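 TDP-43-expressing yeast, pregrown in raffinose, seeded at OD600 0.02 in galactose medium with compound for 24 hr at 30 deg C. Growth read by BacTiter-Glo luminescence, so rescue of toxicity appears as activation.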

Row | Compound | growth rescue (activation)
1 | Cc1ccc(NC(=O)COC(=O)c2cc(Cl)ccc2[N+](=O)[O-])c(C)c1 | inactive: 20.5%
2 | COc1cc(-c2cc(C(=O)Nc3c(Cl)cc(Cl)cc3Cl)c3ccccc3n2)cc(OC)c1OC | inactive: 0.435%
3 | O=C(O)C1CCN1C1CCCCC1 (stereo unspecified) | inactive: -2.19%
4 | Cc1ccc(CN2CCN(/N=C/c3ccccc3)CC2)cc1 | inactive: 5.83%
5 | CC(=O)Nc1ccc(C=NNC(=O)c2ccc(NS(=O)(=O)c3cccs3)cc2)cc1 | inactive: 15.5%
6 | COc1ccc(C2SCC(=O)N2CCCN(C)C)cc1 (stereo unspecified) | inactive: 18%
7 | Cc1nnc(C)n1N | inactive: -6.43%
8 | Cn1cccc1C(=O)OCc1ccc(F)cc1 | inactive: -5.81%
9 | COc1ccc(-c2cc(C(=O)Nc3ccccc3O)c3ccccc3n2)cc1OC | inactive: -2.42%
10 | FC(F)(F)c1ccc(C2NCCc3sccc32)cc1 (stereo unspecified) | inactive: -10.2%
11 | Cc1ccc(NC(=S)NCCN(C2CCCCC2)C2CCCC2)cc1C | inactive: -8.25%
12 | CCN(CC)S(=O)(=O)c1cc(NC(=O)C(C)Nc2ccccc2N2CCOCC2)ccc1C (stereo unspecified) | inactive: -3.73%
13 | CC(=O)c1c(C)[nH]c(C(=O)Nc2ccc(Cl)c(S(=O)(=O)N3CCOCC3)c2)c1C | inactive: -12.5%
14 | CC(C)Oc1ccc(C(=O)Nc2ccc(N3CCCCC3)cc2)cc1 | inactive: -25.5%
15 | CCOc1cccc(CN2CCCC(N3CCc4cc(OC)c(OC)cc4C3)C2)c1O (stereo unspecified) | inactive: 1.77%
16 | COc1ccc(C2=NOC(C(=O)NCc3cccnc3)C2)cc1OC (stereo unspecified) | inactive: -0.899%
17 | Cc1cc(C)cc(C(=O)NCC(=O)OCC(=O)N2CCN(S(=O)(=O)c3ccc4ccccc4c3)CC2)c1 | inactive: -7.02%
18 | NC(=O)N(CCC(=O)O)c1ccccc1 | inactive: 10.3%
19 | COc1ccc(NC(=O)CSc2ncnc3sc(C)cc23)cc1 | inactive: 7.45%
20 | O=C1Nc2ncccc2OC1CCCl (stereo unspecified) | inactive: -13.6%
21 | NC(=O)CN1C(=O)C2C3c4ccccc4C(c4ccccc43)C2C1=O (stereo unspecified) | inactive: 12.6%
22 | O=[N+]([O-])c1ccc2nnn(O)c2c1 | inactive: -8.07%

Row | Compound | growth rescue (activation)
23 | CC(=O)Nc1ccc(C2NC(=S)N(c3ccccc3C(F)(F)F)C(C)=C2C(=O)N2CCOCC2)cc1 (stereo unspecified) | inactive: 5.26%
24 | COc1ccc2[nH]c(=O)c(CN(c3ccc(C)c(C)c3)S(C)(=O)=O)cc2c1 | inactive: -19.8%
25 | O=C(/C=C/c1ccc(Br)cc1)Nc1ccc(S(=O)(=O)Nc2ncccn2)cc1 | inactive: 6.84%
26 | CCCn1c(SCC(=O)c2cc(C)ccc2C)n[nH]c1=O | inactive: 10.2%
27 | CCOc1ccc(N2C(=O)CC(NCCNc3ccc([N+](=O)[O-])cn3)C2=O)cc1 (stereo unspecified) | inactive: 10.3%
28 | O=C(CCN1C(=O)c2cccc3cccc(c23)C1=O)Nc1ccon1 | inactive: 10.3%
29 | COC(=O)c1ccc(NC(=O)NCCCl)cc1 | inactive: 5.82%
30 | COc1ccc(CNC(=O)CN(Cc2ccccc2OC)C(=O)c2csnn2)cc1 | inactive: -7.78%
31 | Cc1ccc(N(C(=O)Cn2nnc(-c3ccc(F)cc3)n2)C(C(=O)NC(C)(C)C)c2ccncc2)cc1 (stereo unspecified) | inactive: -13.3%
32 | CCOc1ccc(NC(=O)C2CCN(C(=O)C3CC(=O)N(c4ccc(C)cc4)C3)CC2)cc1 (stereo unspecified) | inactive: 9.96%
33 | O=C(NC(=S)Nc1ccc2[nH]c(=O)[nH]c2c1)c1ccccc1[N+](=O)[O-] | inactive: 4.04%
34 | CC(=O)N1c2ccc(C)cc2C(c2ccccc2)CC1C (stereo unspecified) | inactive: 18.9%
35 | O=C1CN(C(=O)COc2ccc(Br)cc2F)c2ccccc2N1 | inactive: 14.6%
36 | COc1cc(OC)cc(C(=O)N[C@H](C(=O)NCc2ccccc2)C(C)C)c1 | inactive: -18.9%
37 | COc1cccc(C(=O)N2CCC(CCC(=O)Nc3cccc(C)c3)CC2)c1 | inactive: 7.78%
38 | CCOC(=O)C1CCN(C(=O)COc2ccc(S(=O)(=O)N3CCOCC3)cc2C)CC1 | inactive: 8.27%
39 | COC(=O)C1CN(S(=O)(=O)c2cc(OC)ccc2OC)CCS1 (stereo unspecified) | inactive: -12%
40 | O=C1NC2(NN1c1ccccc1)C1CC3CC(C1)CC2C3 (stereo unspecified) | inactive: 16.1%
41 | CN(C)c1ccc(C=C2C(=O)OC(C)(C)OC2=O)cc1 | inactive: 19.8%
42 | CCN(CC)S(=O)(=O)c1cccc(C(=O)N/N=C/c2ccccc2OCC(=O)O)c1 | inactive: 2.2%
43 | COCCN1C(=O)c2ccc(C(=O)Nc3cccnc3)cc2C1=O | inactive: 19.6%
44 | CCOC(=O)C1CCCN(S(=O)(=O)c2cc(Br)cc3c2N(C(=O)CC)CC3)C1 (stereo unspecified) | inactive: 5.56%

Row | Compound | growth rescue (activation)
45 | CN(C)/C=N/C(=S)Nc1ccc(F)cc1 | inactive: 30.3%
46 | CC(C)Oc1cccc(C(=O)C2CCCN(Cc3cnc(N4CCCC4)s3)C2)c1 (stereo unspecified) | inactive: -1.69%
47 | Cc1ccc(C(OCC(C)(C)C[N+](C)(C)C)c2ccccc2)cc1 (stereo unspecified) | inactive: -8.39%
48 | COc1ccc(CNC(=O)CN(C(=O)c2csnn2)c2cccc(F)c2)cc1 | inactive: -4.1%
49 | O=C(CSc1nc2ccccc2c(=O)n1-c1ccc(F)cc1F)c1c[nH]c2ccccc12 | inactive: 2.36%
50 | CC(c1ccccc1)N1CCc2[nH]c(=S)[nH]c(=O)c2C1 (stereo unspecified) | inactive: 1.32%
51 | O=C(NC1CCCc2ccccc21)c1ccc([N+](=O)[O-])cc1 (stereo unspecified) | inactive: -10.7%
52 | COCCn1c(N)c(N(Cc2ccccc2)C(=O)C2CCCCC2)c(=O)[nH]c1=O | inactive: 8.62%
53 | CC1CN(C(=O)COC(=O)c2ccc3ncsc3c2)CC(C)O1 (stereo unspecified) | inactive: -10.2%
54 | Cc1ccc(-c2c3c(=O)n(C)c(=O)n(C)c3cn2Cc2ccccn2)cc1 | inactive: -46.9%
55 | CCOc1ccc(NC(=O)CSc2cn[nH]n2)cc1 | inactive: 4.73%
56 | CC(NC(=O)COC(=O)/C=C/c1cccc(F)c1)c1ccccc1 (stereo unspecified) | inactive: 28.9%
57 | CCC(C)(C)NC(=O)C(c1ccc(C)cc1)N(CC1CCCO1)C(=O)CCC(=O)Nc1ccccn1 (stereo unspecified) | inactive: -6.87%
58 | COc1cc(CC(=O)Nc2nc(-c3ccccc3)c(C(C)=O)s2)cc(OC)c1OC | inactive: -7.18%
59 | COc1ccc(-c2cc(C(F)(F)F)nc(N)n2)cc1 | inactive: 18.9%
60 | Cc1ccc2cc(C#N)c(SCC(=O)NNC(=O)Cc3ccccc3)nc2c1 | inactive: -19.1%
61 | COC(=O)c1[nH]c2cccc(OC)c2c1NC(=O)CN1CCN(c2cccc(OC)c2)C(C)C1 (stereo unspecified) | inactive: 4.09%
62 | C=CCNC(=S)Nc1ccc2nc(C)oc2c1 | inactive: 1.25%
63 | CCc1nc2ccc(C(=O)N3CCC(O)(Cc4ccccc4)CC3)cn2c1N(C)C(=O)Cc1ccccc1 | inactive: 23.8%
64 | Cc1ccc(Sc2c(C)nn(-c3ccccc3)c2OC(=O)CC(C)C)cc1 | inactive: -70.7%
65 | CC1(C)CC(=O)C2=C(C1)Nc1ccccc1NC2c1cccnc1 (stereo unspecified) | inactive: 13%
66 | O=C(COc1ccc(/C=N/NS(=O)(=O)c2ccccc2)cc1)Nc1cccc(Cl)c1 | inactive: 20.2%

Row | Compound | growth rescue (activation)
67 | CCC(Sc1nncn1C)C(=O)Nc1cc(C)on1 (stereo unspecified) | inactive: 0.284%
68 | CC(C)(CN1CCN(Cc2ccccc2)CC1)NS(=O)(=O)c1ccccc1 | inactive: 0.735%
69 | CS(=O)(=O)c1ccc2nc(NC(=O)c3ccc(N4C(=O)CCC4=O)cc3)sc2c1 | inactive: -19.7%
70 | COc1ccc(C(=O)NC(=S)Nc2ccc(S(=O)(=O)Nc3cc(C)on3)cc2)cc1OC | inactive: -37.3%
71 | COc1ccc(N(C)S(=O)(=O)c2ccc(Cl)c(C(=O)NNC(=O)c3ccccc3O)c2)cc1 | inactive: 0.0549%
72 | CC(C)NC(=O)c1cc(C2CCCCN2C(=O)c2ccc(C#N)cc2)on1 (stereo unspecified) | inactive: 9.61%
73 | COc1ccc(C(=O)C(C)[n+]2ccc(-c3nnc4n3CCCCC4)cc2)cc1 (stereo unspecified) | inactive: -0.261%
74 | O=c1nc2ccc(Cl)cn2c2ccc(S(=O)(=O)N3CCOCC3)cc12 | inactive: -5.74%
75 | COc1ccccc1NC(=O)Cc1nc(CCl)cs1 | inactive: -9.18%
76 | Cc1cccc(OCC(=O)NCCCNC(=O)c2ccc(C)nc2)c1 | inactive: 10.2%
77 | N#Cc1cc2ccccc2nc1SCC(=O)NC1CC1 | inactive: 9.43%
78 | CCNC(=O)C1(C)CCN(C(=O)c2cccc(OC(F)(F)F)c2)C1 (stereo unspecified) | inactive: 4.66%
79 | COc1ccc(S(=O)(=O)Nc2cccc(C)c2C)c2cccnc12 | inactive: -16.8%
80 | O=C(COc1cccc2ccccc12)N/N=C/c1ccccc1OCc1ccc(C(=O)O)cc1 | inactive: -1.02%
81 | CC(=O)Nc1ccc(N(C(=O)CNC(=O)c2cccs2)C(C(=O)NC(C)(C)C)c2ccccc2)cc1 (stereo unspecified) | inactive: 29.9%
82 | CCc1ccccc1NC(=O)CN1CCN(CC(=O)Nc2ccc(-c3ccccc3)cc2)CC1 | inactive: 18.5%
83 | CC1=C(C(=O)OCC2CCCO2)C(c2ccc(F)cc2)NC(=O)N1 (stereo unspecified) | inactive: 6.83%
84 | CC1(C(=O)NS(=O)(=O)C2CC2)CCN(C(=O)c2cc3ccccc3s2)C1 (stereo unspecified) | inactive: 8.68%
85 | Cc1ccc(S(=O)(=O)NC(=O)C2(C)CCN2C(=O)C2(c3ccc(Cl)cc3)CC2)nc1 (stereo unspecified) | inactive: -3.88%
86 | CCn1c(SCC(=O)Nc2ccc(C)cc2)nnc1-c1ccccn1 | inactive: 16.1%
87 | O=C(c1ccc2c3c(cccc13)CC2)C1CCCN(Cc2cccnc2)C1 (stereo unspecified) | inactive: -0.432%
88 | CCOC(=O)NNC1CC(=O)N(c2ccccc2)C1=O (stereo unspecified) | inactive: -24.7%

Row | Compound | growth rescue (activation)
89 | S=c1nc(-c2ccc(Br)cc2)oc2c1CCCC2 | inactive: 25.2%
90 | COc1ccccc1NC(=O)c1ccccc1NC(=O)c1cccs1 | inactive: 10.5%
91 | CCCCCCCCCCCCCCCC[n+]1ccc(/C=N/O)cc1 | inactive: -89.2%
92 | O=C(N/N=C/c1ccc([N+](=O)[O-])o1)c1ccccc1-n1cccc1 | inactive: 29.4%
93 | COc1cccc(/C=N/NC(=O)c2[nH]nc3c2CCc2ccccc2-3)c1O | inactive: 21.2%
94 | N#CCCN(C(=O)CN1c2cccc3cccc(c23)S1(=O)=O)c1ccccc1 | inactive: 7.15%
95 | O=C(Nc1nc2ccccc2s1)c1ccccc1 | inactive: 22.1%
96 | O=C(O)CNC(=O)/C=C/c1c(Cl)cccc1Cl | inactive: 7.71%
97 | COc1ccc(OC)c(S(=O)(=O)N2CCCC(C(=O)NCCN3CCOCC3)C2)c1 (stereo unspecified) | inactive: 4.16%
98 | Clc1cccc(/C(Cc2nc3ccccc3[nH]2)=N\Nc2ccccc2)c1 | inactive: -76.5%
99 | C=CCn1c(SCc2nc3c(c(=O)[nH]c(=O)n3CCCC)n2CCC)nnc1-c1ccccc1 | inactive: 0.623%
100 | O=C(N/N=C\c1c[nH]c2ccccc12)c1ccc(O)cc1 | inactive: 10.3%
101 | CCOc1ccc(S(=O)(=O)N2CCCCC2)cc1NC(=O)CN1C(=O)NC(C)(C2CC2)C1=O (stereo unspecified) | inactive: 23.1%
102 | CN1CCN(S(=O)(=O)c2cccc(C(=O)Nc3cccc(S(N)(=O)=O)c3)c2)CC1 | inactive: 11.7%
103 | O=Cc1c(N2CCCCC2)nc2ccccn2c1=O | inactive: 8.66%
104 | COc1ccc(C)cc1NC(=O)C1CC(=O)N(CCc2ccc(F)cc2)C1 (stereo unspecified) | inactive: 2.49%
105 | O=C(O)COc1ccccc1C=NNC(=O)c1ccccc1NS(=O)(=O)c1cccs1 | inactive: -10.8%
106 | CCOC(=O)/C(O)=C(\C#N)c1nc2ccccc2[nH]1 | inactive: 4.47%
